The campaign covered roughly 150,000 compounds. About 540 (0.36%) showed an effect of 50% or more. This is one part of the list.
System: Plasmodium falciparum
Assay: Primary screen in NF54 nanoGlo assay, in single point, at 2uM, 72h; a lower Z score goes with more inhibition
Type: functional, Erythrocyte
Details: timepoint 72 hour

Structure (SMILES)	% Inhibition [%]	Z score
CCN(C(=O)CN1CCC[C@H]1c1ccc2c(c1)OCCCO2)c1ccccc1C	-10	1.97
Cc1nn(C)c(C)c1S(=O)(=O)NCCn1nc(-c2ccccn2)c2c1CCCC2	-17	2.18
COc1cccc(-n2cc(C(=O)O)c3c2[C@@H](c2ccc(O)cc2)CC(=O)N3)c1	-1	0.16
Cc1ccc(Oc2ccc(CN3CC[C@H](N)[C@@H](O)C3)cc2)cc1C	7	-1.12
Cc1cc(Br)c(C(=O)O)cc1N	-13	1.47
Cc1noc(CN[C@@H](C)c2cccc(-n3cccn3)c2)n1	-2	0.31
O=C(c1cnc(NCc2ccc3sccc3c2)c(Cl)c1)N1CCOCC1	5	-0.7
CC1CCN(CN2C(=O)N(CN3C(=O)N(CN4CCC(C)CC4)C(=O)C3(C)C)C(C)(C)C2=O)CC1	0	-0.01
O=C(N[C@@H](CO)c1ccsc1)c1cccc2c1OCC2	-6	1.04
CCOc1ccc(-c2nc3c([nH]2)c(C)nn3[C@@H](C)CC)cc1CO	-11	1.61
O=C(C1CC1c1ccc(F)c(F)c1)N1CCCC1CO (configuration not stated)	-6	0.62
CCOC1CCN(C[C@@H](O)CC2CCCC2)CC1	-11	1.66
Cc1cccnc1Cn1ccc(-c2ccc(CN3CCC(F)CC3)s2)n1	1	-0.19
CC(C)(C)NC(=O)N[C@H]1COc2c1ccc(Cl)c2Cl	35	-5.13
O=C(O)c1n[nH]cc1CN1CCCN(CCCc2ccccc2)CC1	-1	0.15
O=C([C@@H]1CCCCO1)N(Cc1cncs1)Cc1cncs1	7	-1
Cc1nnccc1C(=O)NC(C)(C)c1cn(C(C)C)nn1	-11	1.76
Cc1nccc(N2CC[C@H]3[C@H](CCC(=O)N3CCCn3ccnc3)C2)n1	-9	1.68
COC[C@@H]1CN(C(=O)c2ccccc2OC)C[C@H]1c1ccccn1	-17	2.84
Cc1cc(C)n(CCN(C)CCc2csc(C)n2)n1	-11	1.26
Nc1c(-c2ccncc2)nsc1C(=O)NCCc1cccs1	-4	0.38
CCc1noc2nc(C)nc(NCCc3ccc(C)cc3)c12	-10	1.12

Structure (SMILES)	% Inhibition [%]	Z score
O=C1N[C@H]2CCN(C(=O)c3c[nH]c(C(F)(F)F)c3)C[C@@H]2CO1	-5	0.72
CCN(CC(=O)Nc1cc(C)ccc1OC)C1CN(C(=O)OC(C)(C)C)C1	-1	0.18
CC(NC1CCCS(=O)(=O)CC1)C(c1ccccc1)N(C)C (configuration not stated)	-6	0.6
O=C(Oc1ccc2c(c1)OCO2)C1CCN(S(=O)(=O)c2ccc3c(c2)CCC3)CC1	6	-0.8
Cc1ccc(C)c(Cn2c(C(=O)Nc3ccccc3)cc3cc(NC(=O)c4ccco4)ccc32)c1	2	-0.19
C=CCn1c(=O)sc2cc(NC(=O)Cc3cccc(F)c3)ccc21	-11	1.4
CCOC(=O)N1CCN(C(=O)c2cc(N(C)S(=O)(=O)c3ccccc3)ccn2)CC1	1	-0.08
O=C(c1ccccc1)N1CCN(C(=O)c2ccccc2-c2nc3ccccc3s2)CC1	-8	1.1
CC(C)Oc1cccnc1C(=O)OCc1ncc(C(C)(C)C)o1	-3	0.46
CCOCCN1CCN(C(=O)Nc2ccc(F)cn2)C[C@@H]1CC	-7	0.77
Cn1nccc1CCNC(=O)NCCc1cc(F)c(F)c(F)c1	-5	0.55
Cc1c(S(=O)(=O)N2C[C@]3(C)CC[C@@H](C3)C2(C)C)cnn1C	-11	1.5
O=C(c1ncccn1)N1CCC(Oc2ccncc2Cl)CC1	1	-0.26
CCCc1nnsc1C(=O)N1[C@@H]2CC[C@H]1CN(C)CC2	-1	0.23
CCc1noc(C)c1NC(=O)NC[C@@H]1C[C@H]1c1ccccc1	3	-0.39
O=C(Cn1nnc(-c2ccco2)n1)NCCc1ccc(F)cc1	-3	0.39
Clc1ccccc1COc1ccc(CNC2CCCCC2)cc1	33	-4.73
COc1ccc(OC)c(S(=O)(=O)n2cnnc2)c1	-8	0.92
O=C(c1cccc(Br)c1)N1CCN(c2nnc3ccccn23)CC1	28	-3.15
CC(C)N(CC(=O)Nc1nc(-c2ccccc2)cn1-c1ccc(F)c(Cl)c1)C(=O)c1ccco1	-7	0.98
CCOC(=O)C1CCN(C(=O)c2snc3c(=O)n(C(C)C)c(=O)[nH]c23)CC1	-10	1.6
CC(C)[C@H]1C(=O)N(C)CCN1C(=O)Nc1ccccc1Oc1ccccc1F	-6	0.99

Structure (SMILES)	% Inhibition [%]	Z score
Cc1cc(S(=O)(=O)NCCc2cnoc2)c(C)o1	2	-0.33
Cc1nc2n(c1CN1CCN(C(=O)COC3CCCCC3)CC1)CCCC2	-9	1.15
CC(C)(C)NC(=O)NCc1nccn1CCCc1ccccc1	-5	0.64
CC(C)Cn1ccc2c(cc(C(=O)Nc3ccccc3F)n2C)c1=O	-3	0.49
COc1ccc(NC(=O)c2cc(C#N)c3c4ccccc4ccn23)cc1	-5	0.7
CCc1nnc(CNC(=O)c2cc(=O)cc(C)[nH]2)s1	-21	2.08
Cc1nnsc1CON=C(N)Cc1ccccc1	-11	1.48
Cc1nn(C)cc1-c1csc(NCCc2ccccn2)n1	0	0.03
CCCCc1nc(CN(C)CC2(CO)CCC2)c[nH]1	0	-0.07
Cc1cc(NC(=O)Cc2c(C)noc2C)sn1	-1	0.22
COCCN(CCC(=O)O)C(=O)c1cc(Br)ccc1Cl	-4	0.53
Cc1cc(OCCC(C)(C)O)ccc1C#N	-12	2.32
CN1CCOCC1C(=O)NCC(O)c1ccc(-c2ccccc2)cc1 (configuration not stated)	-9	0.76
COc1ccccc1C1(CNS(=O)(=O)c2c(C)noc2C)CCOCC1	1	-0.23
Cc1ccccc1-c1noc(CN2CCC[C@@H]2Cn2cncn2)n1	-8	0.8
CN1CCC[C@H](CN(C)C(=O)c2cc(C(C)(C)C)nc(=O)[nH]2)C1	-10	1.6
CC(C)(C)NC(=O)NCc1ccc(-c2ccoc2)o1	9	-1.3
Cc1c(-c2cc(CN3CCS(=O)(=O)c4ccccc4C3)on2)cnn1C	-7	1.12
Cc1cc(C#N)cc(N[C@@H]2C[C@@H](C)Oc3ccccc32)n1	12	-2.08
Cc1cc(NC(=O)NCCN2CCCCC2)no1	5	-0.88
COCCN(C)c1cc(C2CN(C(=O)OC(C)(C)C)C2)ncn1	-10	1.83
CC[C@@H](c1cccnc1)N(C)C(=O)c1ccc(N2CC(=O)NC2=O)cc1	1	-0.15

Structure (SMILES)	% Inhibition [%]	Z score
Cc1ccc(NC(=O)CCOC2CCOCC2)c(O)n1	-15	2.87
Cc1ccc(-n2cc(C)cn2)c(NC(=O)N2CCC(OC[C@H]3CCCO3)CC2)c1	4	-0.53
Cc1cnc(C)c(N[C@H]2CCCCNC2=O)n1	-5	1.02
Cc1noc(C)c1C(=O)N[C@H]1CCOc2ccccc21	-15	2.08
Cn1cnc(C(=O)N2CC[C@@H]3OCc4cccc(c4)Oc4ccc(cc4)CCC(=O)N(CCCO)CC(=O)N[C@H]3C2)c1	-20	3.74
O=C(Cc1cccc(C(F)(F)F)n1)N1CCC[C@@H]1Cn1cncn1	2	-0.28
O=S(=O)(CCC(F)(F)F)N1CCCC[C@H](c2ccccc2)C1	18	-2.33
Cc1cnn(C2CCCC2)c1NC(=O)c1ccc(C(=O)N2CCOCC2)cc1	-4	0.72
COc1nccnc1NCC1(N(C)C)CCCCC1	2	-0.41
CS(=O)(=O)c1cccc(-c2nnc(N3CCOCC3)[nH]2)c1	-11	1.38
Cc1noc(C)c1S(=O)(=O)N1C[C@H]2CCCC(=O)N(Cc3cccc(F)c3)[C@H]2C1	34	-3.85
CC(C)[C@@H](N)C(=O)Nc1cnc2c(c1)CCCC2	-8	1.15
O=C(NCCn1ccc(-c2cnccn2)n1)c1ccc(S(=O)(=O)N2CCOCC2)cc1	13	-1.62
C[C@@H](C(=O)NCCC1=CCCCC1)N(C)Cc1nc2ccccc2s1	-5	0.54
Brc1ccccc1-n1nncc1-c1nc(-c2cnccn2)no1	-17	2.02
CCc1ncnc(NCCC2CCN(C3CCCC3)CC2)c1F	-9	1.12
O=C(C1CCCCC1)N1CCc2ccccc2[C@@H]1c1ccc(F)cc1	10	-1.42
O=S1(=O)C=C[C@@H](NCc2ccccc2)C1	-3	0.28
O=S(=O)(CC12CCC(CC1)CC2)N1CCC2(COC2)C1	-10	0.97
COCC(O)CN1CCCC1c1nncn1CC(C)C (configuration not stated)	-5	0.65

— ChEMBL document CHEMBL4888484, “Replenishing the malaria drug discovery pipeline: Screening and hit evaluation of the MMV Hit Generation Library 1 (HGL1) against asexual blood stage Plasmodium falciparum ,using a nano luciferase reporter read-out” (2022)
